The campaign covered roughly 16,000 compounds. About 120 (0.75%) were called active. Inconclusive results (about 4%) are left out. Calls follow the shape of the dose curve; as a rule, active = well fitted inhibition curve with a large enough effect; inconclusive = small, poorly fitted or top-dose-only effect; inactive = no such curve, though single readings can be large or run the other way. The list shows a part of the results.

The assay has as its target Rap guanine nucleotide exchange factor 3 (Homo sapiens) (UniProt O95398). Briefly: Validation qHTS for antagonist of cAMP-regulated guanine nucleotide exchange factor 3 (EPAC1).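 Also: plate controls were DMSO for no effect and ATA control for full effect; nearly all actives have a fitted effect of over 75% in size.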 Particulars: EPAC1 Rap1B-BODIPY-GDP exchange, fluorescence; series mostly up to 150 µM; activity change, negative = inhibition: at the top concentration. In short, it runs like this: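 EPAC1 (100 nM) mixed with 250 nM RAP1B-BODIPY-GDP and 50 uM GDP; compounds in concentration series, 5 min at room temperature. Fluorescence (ex 480/em 540 nm) read every 5 min for 30 min; normalized to ATA control and DMSO.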
Chain of UniProt O95398 (O95398 whole entry, looked up): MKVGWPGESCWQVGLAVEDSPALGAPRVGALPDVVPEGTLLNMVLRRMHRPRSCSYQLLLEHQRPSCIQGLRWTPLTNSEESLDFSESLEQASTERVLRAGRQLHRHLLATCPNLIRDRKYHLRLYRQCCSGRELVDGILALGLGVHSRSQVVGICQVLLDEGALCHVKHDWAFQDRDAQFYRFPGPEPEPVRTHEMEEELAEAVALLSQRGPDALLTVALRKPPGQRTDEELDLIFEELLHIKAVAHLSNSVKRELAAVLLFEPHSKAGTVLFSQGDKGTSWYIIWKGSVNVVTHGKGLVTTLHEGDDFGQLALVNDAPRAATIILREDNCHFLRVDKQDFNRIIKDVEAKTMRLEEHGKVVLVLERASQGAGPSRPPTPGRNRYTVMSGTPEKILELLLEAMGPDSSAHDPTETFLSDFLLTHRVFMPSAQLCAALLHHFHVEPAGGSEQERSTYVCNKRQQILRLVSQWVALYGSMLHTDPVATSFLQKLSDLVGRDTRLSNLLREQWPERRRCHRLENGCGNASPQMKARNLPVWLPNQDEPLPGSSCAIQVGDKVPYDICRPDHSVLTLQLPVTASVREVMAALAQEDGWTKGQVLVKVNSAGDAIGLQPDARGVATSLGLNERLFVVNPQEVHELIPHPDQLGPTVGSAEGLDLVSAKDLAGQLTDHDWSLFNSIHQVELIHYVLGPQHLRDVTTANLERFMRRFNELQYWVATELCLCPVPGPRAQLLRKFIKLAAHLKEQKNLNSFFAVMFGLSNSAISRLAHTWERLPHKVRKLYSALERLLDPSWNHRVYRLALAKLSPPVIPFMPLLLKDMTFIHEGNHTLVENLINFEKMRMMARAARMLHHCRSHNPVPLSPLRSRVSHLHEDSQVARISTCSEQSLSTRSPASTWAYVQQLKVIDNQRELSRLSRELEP
A general note: In qHTS, concentration-response curves come from the screen itself.
As to `C#CCC(Cc1cnc2nc(N)nc(N)c2n1)c1ccc(C(=O)N[C@@H](CCC(=O)O)C(=O)O)cc1` (stereo partly specified), the “activity change, negative = inhibition” value is inactive: 21.7%.
Consider `O=C(c1cc(C(F)(F)F)cc(C(F)(F)F)c1)N1CCC2(CCCN(c3ccccn3)C2)CC1`, for which the “activity change, negative = inhibition” value is inactive: -26.9%.
To `O=[N+]([O-])c1cccc2c[nH]nc12` belongs inactive: 1.79%; to `Cn1c(=O)c(-c2cc(F)cc(F)c2)nc2cnc(N3CCNCC3)nc21`, inactive: 0.0874%.
The value for `CC(C)(C)NCC(O)COc1cccc2[nH]c(=O)[nH]c12` (stereo unspecified) was “inactive”.
To `NC(=O)C(=O)N/N=C/c1ccc([N+](=O)[O-])o1` belongs inactive: 15.3%.
As to `NC(Cc1cnc[nH]1)C(=O)Nc1ccc2ccccc2c1` (stereo unspecified), the “activity change, negative = inhibition” value is inactive: 17.4%.
`CN(CC[C@@H](Oc1ccc(-c2ccccc2)cc1)c1ccc(F)cc1)CC(=O)O`: the “activity change, negative = inhibition” value is inactive: -0.957%.
As to `CCCCCCCCCC(=O)O`, the “activity change, negative = inhibition” value was inactive: 5.14%.
To `COc1ccc2c(c1)OC(C)CN(CCNC(=O)c1ccc(-n3cccn3)cc1)C2` (stereo unspecified) belongs inactive: 15%; to `COCC(=O)N1CCC2(CC1)CCN(c1ccncc1)CC2`, inactive: 13.6%; to `COCCNc1cc(-c2c(C)noc2C)ncn1`, inactive: 9.01%.
The value for `OCC1OC(n2cnc3c(NCc4ccco4)ncnc32)C(O)C1O` (stereo unspecified) was inactive: 8.53%; that for `Cc1noc(C)c1-c1ccc2ncnc(N3CCN(C)CC3)c2c1` was inactive: 3.55%; that for `CN(C)c1ccc(-c2cncnc2Nc2ccccc2)cc1` was inactive: -1.61%.
The value for `CN(Cc1ccco1)c1ncnc2ccc(-c3ccoc3)cc12` was inactive: 2.76%; that for `CCCCCN=C(N)N/N=C/c1c[nH]c2ccc(OC)cc12` was “inactive”; that for `O=C(Nc1ccccc1)N1CCC2(CC1)CCN(C(=O)c1csnn1)CC2` was inactive: -6.77%.
As for `COc1ccc(S(=O)(=O)N(CCO)c2ccccc2CN(C)C/C=C/c2ccc(Cl)cc2)cc1`, the “activity change, negative = inhibition” value is inactive: 1.5%.
To `NS(=O)(=O)c1cccc2c1c([N+](=O)[O-])cc1[nH]c(=O)c(=O)[nH]c12` belongs inactive: -17.1%; to `CCC1(C2CCN(C(=O)c3cc(F)ccc3F)CC2)NC(=O)N(CCc2scnc2C)C1=O` (stereo unspecified), inactive: 9.99%; to `CN1CCN(c2ncc3nc(-c4cc(F)cc(F)c4)c(=O)n(CCC#N)c3n2)CC1`, inactive: 11.6%.
To `C[C@@H](CC(=O)O)[C@@H](N)C(=O)O` belongs “inactive”; to `OC1C=C2CCN3Cc4cc5c(cc4C(C1O)C23)OCO5` (stereo unspecified), inactive: 8.06%; to `Cc1ccc2nc(N)[nH]c(=O)c2c1Sc1ccncc1`, inactive: 19.5%.
To `CC(C)(C)c1ccc2c(S(=O)(=O)O)c(C(C)(C)C)ccc2c1` belongs inactive: 12.2%.
On to `OCC1(CO)COC(C(Cl)(Cl)Cl)OC1`, for which the “activity change, negative = inhibition” value was inactive: 2.7%.
The value for `CC1(C)CC2C1CCC1(C)OC2(C)CCC1O` (stereo unspecified) was inactive: 0.0893%; that for `CCNc1ncc2nc(-c3cc(F)cc(F)c3)c(=O)n(C3CC3)c2n1` was inactive: 4.91%.
The value for `CC(NNC(=O)c1ccccc1)c1ccccc1` (stereo unspecified) was inactive: 13.5%.
Turning to `CS(=O)(=O)OCC(O)C(O)COS(C)(=O)=O` (stereo unspecified), the “activity change, negative = inhibition” value was inactive: -9.47%.
For `O=C(C[n+]1cccc2cc(Cl)ccc21)c1ccc(Br)cc1`, the “activity change, negative = inhibition” value is inactive: 10.5%.
The value for `O=C(c1cccc(F)c1)N1CCC2(CC1)CCN(c1ncccn1)CC2` was inactive: 7.34%; that for `CC(N)CCCP(=O)(O)O` (stereo unspecified) was inactive: -1.45%; that for `CC(=O)N(CC(O)CN(C(C)=O)c1c(I)c(C(=O)NCC(O)CO)c(I)c(C(=O)NCC(O)CO)c1I)c1c(I)c(C(=O)NCC(O)CO)c(I)c(C(=O)NCC(O)CO)c1I` (stereo unspecified) was inactive: 16.8% [at 75.8 µM].
To `NC(CSCSCC(N)C(=O)O)C(=O)O` (stereo unspecified) belongs inactive: 20.1%; to `Cc1cc(C(=O)Nc2ccccc2-c2nc(CNC(=O)c3cscn3)c(C)o2)c(C)o1`, inactive: 16.7%.
To `CN(C)c1nc(-c2ccoc2)nc2ccccc12` belongs inactive: 36.5%; to `Cc1ccccc1-c1nccc(NCCN2CCOCC2)n1`, inactive: -1.82%; to `O=C(O)CCCC[C@@H]1SC[C@H]2NC(=O)N[C@@H]12`, inactive: 12.2%.
Regarding `COc1ccccc1CN1CCC2(CC1)CCN(C(=O)c1cccc(F)c1)CC2`, the “activity change, negative = inhibition” value was inactive: 13.6%.
The value for `Cc1cc(C(=O)NCC2CCC3(CCN(Cc4ccc(F)cc4)CC3)O2)n(C)n1` (stereo unspecified) was inactive: 16%; that for `CCC(CN)CC(C)CCNCC(O)CNCC(C)CC(CC)CN` (stereo unspecified) was inactive: 30.6%; that for `Cc1noc(C)c1-c1ccc2ncnc(Nc3ccc(F)cc3)c2c1` was inactive: -9.07%.
To `O=C(c1cn(C2CCCN(Cc3cccc(Oc4ccccc4)c3)C2)nn1)N1CCCC1` (stereo unspecified) belongs inactive: 7.97%; to `CC(C(=O)O)c1ccc(C(=O)c2ccccc2)s1` (stereo unspecified), inactive: 12.6% [at 75.8 µM].
Consider `O=C1CCN(Cc2ccc(-c3ccccc3)cc2)CCN1Cc1ccccn1`, for which the “activity change, negative = inhibition” value was inactive: -6.88%.
Regarding `CCCCC[C@H](O)/C=C/C=C\CCCCCCCC(=O)O`, the activity change, negative = inhibition entry was “inactive”.
The value for `COc1cc(=O)n2c(c1C(=O)N(C)Cc1nonc1C)CCN(C(=O)c1cc(C)ccc1C)CC2` was inactive: 16.9%.
The value for `CC(=O)N1CCC2(CC1)CCN(C(c1ccccc1)c1ccccc1)CC2` was inactive: 4.51%.
To `COc1ccccc1N1CCN(CCCC(=O)c2ccc(F)cc2)CC1` belongs inactive: 6.48%; to `NC(=O)NS(=O)(=O)c1ccc(N)cc1`, inactive: 9.56%; to `CN(C)CCc1cc2c(c3c1ccc1ccccc13)OCO2`, inactive: -0.692%.
As to `COCCn1c(=O)c(-c2ccc(F)cc2)nc2cnc(N3CCOCC3)nc21`, the “activity change, negative = inhibition” value was inactive: 10.1%.
To `O=P(O)(O)OP(=O)(O)OP(=O)(O)O` belongs inactive: 11.5%; to `CN(C)CC/C=C1/c2ccccc2COc2ccc(CC(=O)O)cc21`, inactive: 15.2%; to `O=C(c1cnccn1)N1CCC2(CC1)CCN(c1ccncc1)CC2`, inactive: 22.9%.
To `CC(C)(C)[C@H]1CCC(=O)N([C@H](CSc2ccc(Br)cc2)Cc2ccccc2)CC1` belongs inactive: -9.89%; to `O=C1NC(CC(=O)N2CCC(n3c(C4CCC4)nc4cccnc43)CC2)c2ccccc21` (stereo unspecified), inactive: 14.6%; to `Clc1ccc(N2CCN(Cc3cc4ccccn4n3)CC2)cc1`, inactive: -7.94% [at 75.8 µM].
To `O=C(O)C1=CCCN(CCON=C(c2ccccc2)c2ccccc2)C1` belongs “inactive”; to `Cn1c(=O)c(-c2ccc(Cl)cc2)nc2cnc(N3CCOCC3)nc21`, inactive: 13.1%.
Regarding `O=S(=O)(O)CC(S)CS` (stereo unspecified), the “activity change, negative = inhibition” value was inactive: -1.12%.
The value for `COC(=O)c1c(OCc2ccccn2)cc(=O)n2c1CCN(Cc1ccc3c(c1)CCCN3C)CC2` was inactive: 20%; that for `c1ccc(CN(CC2=NCCN2)c2ccccc2)cc1` was “inactive”; that for `O=C(c1ccncc1)N1CCC2(CC1)CCN(c1ccccn1)CC2` was inactive: 7.93%.
The value for `CCN(c1nc(N)c(C(=O)N=C(N)N)nc1Cl)C(C)C` was inactive: -5.71% [at 75.8 µM]; that for `CN(CCO)C(=O)c1cn(C2CCCN(Cc3ccc(C(F)(F)F)cc3)C2)nn1` (stereo unspecified) was inactive: 6.83%.
The value for `CC1CCC(=O)N(CCC#N)CC1` (stereo unspecified) was inactive: 14.9%; that for `CCS(=O)(=O)NCc1c(C)ncc2c1CCN(C(=O)c1ccc(F)cc1)C2` was inactive: 0.584%; that for `Nc1ncnc2n[nH]c(Nc3ccc(F)cc3)c12` was inactive: 6.6% [at 75.8 µM].
Consider `CC(C)C[C@@H](CSc1ccccc1)N1CCN(CC(C)C)CCC1=O`, for which the “activity change, negative = inhibition” value is inactive: -11.3%.
The value for `CCCCCCCCCCCCC(=O)N1CCCC[C@H]1CNC(=O)[C@@H](N)CCCCN` was inactive: 3.49%; that for `O=c1c(-c2ccc(Cl)cc2)nc2cnc(N3CCOCC3)nc2n1C[C@H]1CCCO1` was inactive: 1.25%.
To `CC(=O)OCC(=O)[C@]1(O)C(C)CC2C3CCC4=CC(=O)C=C[C@@]4(C)[C@]3(F)C(O)C[C@@]21C` (stereo partly specified) belongs inactive: -7.49%; to `Cc1c(C)n(Cc2ccccc2)c2ccc(C(=O)OCCN(C)C)cc12`, inactive: -3.27%; to `CC(=O)N1CCC2(CCCN(Cc3nccs3)C2)CC1`, inactive: 16.9%.
Take `COc1ccccc1-c1nc(Nc2ccncc2)c2ccccc2n1`: the “activity change, negative = inhibition” value was inactive: 10.9%.
The value for `CC1=CC(=O)CC(C)(C)C1(O)/C=C/C(C)=C\C(=O)O` (stereo unspecified) was “inactive”; that for `O=C(Nc1cccc(F)c1)N1CCC2(CCNCC2)CC1` was inactive: 14%; that for `c1ccc(C(c2ccccc2)N2CC3(CCNCC3)C2)cc1` was inactive: 20.3%.
Turning to `O=C(c1ccncc1)N1CCC2(CC1)CN(c1ccncc1)C2`, the “activity change, negative = inhibition” value was inactive: 9.54%.
To `CN1CC[C@@]2(CCCN(C(=O)c3cccc(F)c3)C2)C1` belongs inactive: 19.4%; to `COc1cccc(Cn2c(=O)cnc3cnc(Oc4cccc(Cl)c4)nc32)c1`, inactive: 1.56%.
The value for `COC(=O)C1CCCCN1Cc1ccc2c(c1)CN(Cc1cn[nH]c1-c1ccc(F)cc1)CCO2` (stereo unspecified) was inactive: -4.67%.
The value for `CCCN(CCc1ccccc1)C1CCc2c(O)cccc2C1` (stereo unspecified) was “inactive”; that for `CNc1ccnc(-c2ccccc2C(F)(F)F)n1` was inactive: 10.3%; that for `N.N.N.N.N.N.N.N.N.N.N.N.N.N.O.O.[Ru+4].[Ru+5].[Ru+5]` was inactive: -13.3% [at 75.8 µM].
Regarding `Cc1ccccc1-c1ccc(CN2CCc3nnc(CNC(=O)c4ccccn4)n3CC2)cc1`, the “activity change, negative = inhibition” value was inactive: 17.2%.
To `CN(C)C/C=C(\c1ccc(Br)cc1)c1cccnc1` belongs inactive: 7.23%; to `CN(C)C(=O)CNC(=O)Cc1ccccc1`, inactive: 4.56%; to `CN1c2ccccc2-c2ccccc2S1(=O)=O`, inactive: 13.9%.
The value for `COC(=O)C1N2C(=O)N(C)[C@H](C(=O)OC)[C@H]2SC1(C)C` (stereo partly specified) was inactive: 4.83%; that for `NC(=O)c1cccc(N)c1` was “inactive”.
The value for `COCC(=O)N1CCC2(CCCN(C(=O)Nc3ccccc3)C2)CC1` was inactive: 20%; that for `O=C(c1cscn1)N1CCOc2ccc(CN3CCC(Oc4cccnc4)CC3)cc2C1` was inactive: 9.58%; that for `COc1ccc(CN2CCOc3ccc(CN4CCC(Oc5cccnc5)CC4)cc3C2)cc1` was inactive: 9.96%.
As for `COc1ccccc1C(=O)N[C@@H]1c2ccccc2C2(CCN(Cc3nc(C(C)C)cs3)CC2)[C@H]1O`, the “activity change, negative = inhibition” value is inactive: 0.958%.
The value for `COc1ccc(CN2CCOc3c(O)cc(-c4cc(C)c5ccc(F)cc5n4)cc3C2)c(O)c1` was inactive: -20.2%; that for `Cc1noc(C)c1-c1cc(NCCN2CCOCC2)ncn1` was inactive: 5.32%.
The value for `O=c1c(-c2ccc(O[C@@H]3O[C@H](CO)[C@@H](O)[C@H](O)[C@H]3O)cc2)coc2cc(O)cc(O)c12` was inactive: -10.6%; that for `Cc1cc(O)c2c(O)c3c(O)cccc3cc2c1` was inactive: 5.03%; that for `C=CCSCC1Nc2cc(Cl)c(S(N)(=O)=O)cc2S(=O)(=O)N1` (stereo unspecified) was inactive: 8.86%.
The value for `CN1CC[C@@]2(CCCN(C(=O)c3cc(C(F)(F)F)cc(C(F)(F)F)c3)C2)C1` was inactive: 2.68%; that for `COCCNc1nc(-c2ccc(N(C)C)cc2)nc2ccccc12` was inactive: 17.2%; that for `COc1ccccc1CCn1c(=O)c(-c2ccc(Cl)cc2)nc2cncnc21` was inactive: -3.13%.
Take `COc1cccc(Nc2ncc3nc(-c4cn(C)c5ccccc45)c(=O)n(C[C@H]4CCCO4)c3n2)c1`: the “activity change, negative = inhibition” value was inactive: 44.2%.
The value for `O=c1c(-c2cc(F)cc(F)c2)nc2cncnc2n1Cc1ccc(F)cc1` was inactive: -10.9%.
To `O=C(O)C[C@H]1c2cc(F)ccc2S(=O)(=O)N1Cc1ccccc1` belongs inactive: -3.96%; to `CCCOc1ccc(C(=O)OCCN(CC)CC)cc1N`, inactive: 30.8%; to `Cc1noc(C)c1C(=O)N1CCC2(CC1)CN(Cc1cc(C(F)(F)F)cc(C(F)(F)F)c1)C2`, inactive: 6.74%.

The record behind these values is PubChem BioAssay AID1645882 (National Center for Advancing Translational Sciences (NCATS), 2021).
